Laboratory results: PubChem BioAssay AID894 (National Center for Advancing Translational Sciences (NCATS), 2007)
The campaign covered roughly 150,000 compounds. About 6,500 (4.3%) were called active. Inconclusive means that the source gave no clear call. Such entries were picked first, then a sample of the others. Calls follow the shape of the dose curve; as a rule, active = well fitted inhibition curve with a large enough effect (not every such curve was filed as active); inconclusive = small, poorly fitted or top-dose-only effect, or another doubt; inactive = no such curve, though single readings can be large or run the other way. No potency is given beside an inconclusive call; the fits are too rough.

Target: 15-hydroxyprostaglandin dehydrogenase [NAD(+)] (Homo sapiens) (UniProt P15428)
Assay: qHTS Assay for Inhibitors of HPGD (15-Hydroxyprostaglandin Dehydrogenase)
Settings: purified HPGD, NADH fluorescence kinetic, PGE2 substrate; activity change, negative = inhibition: stronger effect = lower value
Method in brief: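 20 nM HPGD preincubated 15 min at room temperature with compound in 50 mM Tris-HCl pH 8, 0.01% Tween 20. Started with 1 mM NAD+ and 30 uM prostaglandin E2; NADH fluorescence (360/450 nm) read 5 times over 30-s intervals, last minus first.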
% is scaled to controls: 0 for no effect and ±100 for the full control effect; potency is read from the fitted curve at half-maximal effect; tags tell the direction and shape of the fitted curve.

Chain of UniProt P15428 (P15428 whole entry, looked up): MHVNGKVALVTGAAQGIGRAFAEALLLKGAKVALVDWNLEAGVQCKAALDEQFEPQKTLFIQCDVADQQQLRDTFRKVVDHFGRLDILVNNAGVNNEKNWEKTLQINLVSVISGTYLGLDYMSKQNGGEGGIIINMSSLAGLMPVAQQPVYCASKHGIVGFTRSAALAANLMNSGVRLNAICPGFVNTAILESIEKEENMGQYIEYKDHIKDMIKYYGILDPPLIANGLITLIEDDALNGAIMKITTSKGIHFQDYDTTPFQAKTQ

Structure (SMILES) | activity change, negative = inhibition | Potency
OC(CNC1CCCc2ccccc21)COc1c(Cl)cccc1Cl (configuration not stated) | inactive: -7.38% | 
O=C(Nc1cccc(-c2nc3ccccc3s2)c1)c1cccs1 |  | inconclusive [inhibitor, partial curve]
CCCCN(CC)C(=O)c1ccccc1Oc1ccccc1 | inactive: -9.66% | 
Cc1ccc2c(c1)sc[n+]2Cc1ccccc1 |  | active: 20 µM
Cc1nc(N2CCCC2)c2nnn(Cc3ccccc3Cl)c2n1 | inactive: -2.86% | 
CC(C(=O)O)c1ccc(C(=O)c2cccs2)cc1 (configuration not stated) |  | inconclusive [inhibitor, partial curve]
Cc1cc(NS(=O)(=O)c2ccc(Nc3nc(-c4sc(NC(=O)c5ccccc5)nc4C)cs3)cc2)no1 |  | inconclusive [inhibitor, partial curve]
O=C(NCC1CCCO1)c1onc(CSc2ccccc2)c1C(=O)O (configuration not stated) | inactive: -9.17% | 
C[C@@H](C(=O)Nc1ccc2ccccc2c1)[C@@H]1C[C@@]1(C)[C@@H](NC(=O)c1ccncc1Cl)c1ccccc1 | inactive: -11.7% | 
Cc1cccc(OCc2nnc(N)s2)c1C | inactive: -4.34% | 
Cc1ccc(C(=O)N/C(=C\c2cccnc2)c2nc3ccccc3[nH]2)cc1 |  | inconclusive [inhibitor, partial curve]
O=C(CSc1nc2c(cnn2-c2ccc(F)cc2)c(=O)[nH]1)N1CCCCCC1 |  | active: 15.8 µM
CC(CCC#N)[N+](=O)[O-] (configuration not stated) | inactive: -2.49% | 
COc1cc(CCC(=O)OCC(=O)Nc2c(C)cccc2C(C)C)cc(OC)c1OC | inactive: -6.41% | 
Cc1cc(N2CCCCC2)nc(SCc2ccc(C#N)cc2)n1 | inactive: -19.7% | 
Cc1csc2ncc(C(=O)Nc3ccon3)c(=O)n12 |  | inconclusive [inhibitor, partial curve]
CC(NS(=O)(=O)c1cccc(Cl)c1)C(=O)Nc1ccc(-c2nc3ccccc3s2)cc1 (configuration not stated) |  | inconclusive [inhibitor, partial curve]
Cc1ccc(-c2nc3sc4c(c3c(=O)n2N)CCCC4)cc1 |  | inconclusive [inhibitor, single point]
Cc1cccc2sc(NNC(=O)C3COc4ccccc4O3)nc12 (configuration not stated) |  | active: 28.2 µM
CCOC(=O)N1CCN(C(=O)C2CC(=O)N(c3ccc(OC)cc3)C2c2ccc(OC)cc2)CC1 (configuration not stated) | inactive: -15.5% | 
COC(=O)c1sccc1NC(=O)c1ccncc1 | inactive: -17.7% | 
COc1cccc(CNC(=O)C2CCN(S(=O)(=O)c3ccccc3)CC2)c1 | inactive: 3.57% | 
CC1(C)Cc2nc3sc4c(=O)n(Cc5ccccc5)cnc4c3cc2CS1 |  | inconclusive [inhibitor, partial curve]
CCCOc1ccc(-c2c(C(=O)N/N=C/c3ccc(OCC)cc3)nnn2-c2nonc2N)cc1 |  | inconclusive [inhibitor, partial curve]

Structure (SMILES) | activity change, negative = inhibition | Potency
CCCCCNC(=O)c1ccc2c(=O)[nH]c3c(C(=O)NCC4CCCO4)sc(=S)n3c2c1 (configuration not stated) |  | active: 11.2 µM
Cc1cccn2c(=O)c3cc(C#N)c(=NC(=O)c4ccncc4)n(CCCOC(C)C)c3nc12 |  | inconclusive [inhibitor, partial curve]
COc1ccc(C(=O)OCC(=O)Nc2ccc(Cl)c(C(F)(F)F)c2)c(OC)c1OC | inactive: -17.9% | 
CCOC(=O)/C=C(\C)Sc1cc(=O)oc2ccccc12 |  | inconclusive [inhibitor, partial curve]
Cc1ccc(-c2cc(C(=O)Nc3nn[nH]n3)c3ccccc3n2)cc1 |  | inconclusive [inhibitor, partial curve]
O=C(c1ccc(Cl)c([N+](=O)[O-])c1)N1CCN(c2ccccn2)CC1 | inactive: -4.17% | 
O=C(CSc1ccc2nnc(-c3ccncc3)n2n1)NCc1ccco1 |  | inconclusive [inhibitor, partial curve]
COC(=O)C1=C(C)OC(N)=C(C#N)C1c1ccc(OC)c(CSc2ccccn2)c1 (configuration not stated) | inactive: -17.8% | 
CC(NC(=O)COC(=O)Cc1ccsc1)c1ccccc1 (configuration not stated) | inactive: -12.7% | 
CC(C)(C)c1ccc(OCC(=O)NCc2ccco2)c(Br)c1 | inactive: -27.5% | 
CCCCNC(=O)COC(=O)c1cc(Br)ccc1Cl |  | inconclusive [inhibitor, partial curve]
O=C(CCS(=O)(=O)c1cccc2nsnc12)NC1CCCCCC1 |  | inconclusive [inhibitor, partial curve]
O=C1N/C(=N/S(=O)(=O)c2ccccc2)S/C1=C/c1cccnc1 |  | inconclusive [inhibitor, partial curve]
Cc1csc2nc(CSc3nc4ccccc4o3)c(Br)n12 |  | active: 14.1 µM
COc1cc(SC)ccc1C(=O)NCc1ccccc1 |  | active: 25.1 µM
Cc1ccsc1/C=N/NC(=O)C1CC(=O)N(c2ccccc2)C1 (configuration not stated) | inactive: -9.09% | 
Cn1cccc1C(C(=O)NC1CCCCC1)N(C(=O)Cc1cccs1)C1CC1 (configuration not stated) | inactive: -5.43% | 
COc1cccc(NC(=O)C2CC(=O)N(C)C(=Nc3cccc(F)c3)S2)c1 (configuration not stated) | inactive: -12.6% | 
CC(C)COc1ccc(C(=O)OCCN2CCOCC2)cc1 |  | inconclusive [inhibitor, partial curve]
COc1ccc(C(=O)NCc2nnc(SCC(=O)N3CCCCC3)o2)cc1OC | inactive: -24.3% | 
Cc1cccc(OCCn2c(-c3ccco3)nc3ccccc32)c1 |  | inconclusive [inhibitor, single point]
Cc1nn(CCCC(=O)Nc2sc3c(c2C#N)CCC3)c(C)c1[N+](=O)[O-] |  | active: 22.4 µM
CCC1CCCCN1S(=O)(=O)c1ccc2c(c1)CCN2C(=O)C1CCC1 (configuration not stated) |  | inconclusive [inhibitor, partial curve, poor fit]
O=C(c1c[nH]c2ccc(S(=O)(=O)N3CCOCC3)cc2c1=O)N1CCN(c2ccccn2)CC1 |  | inconclusive [inhibitor, partial curve]

Structure (SMILES) | activity change, negative = inhibition | Potency
Nc1nonc1-c1nc2ccccc2[nH]1 |  | inconclusive [inhibitor, single point]
CCOC(=O)c1c(NC(=O)c2cccs2)sc(C(=O)N(C)C)c1C |  | active: 15.8 µM
COc1ccc(/C=N/NC(=O)c2ccc(Br)o2)cc1Cn1cc([N+](=O)[O-])cn1 |  | inconclusive [inhibitor, partial curve]
CCC(=S)/C=C1\Sc2ccccc2N1CCCS(=O)(=O)O |  | inconclusive [inhibitor, partial curve]
O=C1CC(c2ccco2)Cc2nc(Nc3ccc(F)cc3)ncc21 (configuration not stated) | inactive: -18.5% | 
CCOc1ccc(Cc2c(Cl)nc(N)nc2Cl)cc1 |  | inconclusive [inhibitor, partial curve, poor fit]
CC(NC(=O)c1ccco1)c1cccc2ccccc12 (configuration not stated) | inactive: -7.88% | 
CC(C)COc1ccc(-c2nnc(-c3ccco3)o2)cc1 |  | inconclusive [inhibitor, partial curve]
Cc1cccn2c(=O)c3cc(C(=O)N4c5ccccc5CC4C)n(C)c3nc12 (configuration not stated) |  | inconclusive [inhibitor, partial curve, poor fit]
C/C=C(/C)C(=O)O[C@@H]1c2c(ccc3ccc(=O)oc23)O[C@@H]1C(C)(C)OC(=O)/C(C)=C\C |  | inconclusive [inhibitor, partial curve, poor fit]
C/C(Cl)=C/Cn1c(SC(C)C)nc2c1c(=O)[nH]c(=O)n2C |  | inconclusive [inhibitor, partial curve, poor fit]
Cc1nn(-c2ccccc2)c(C)c1/C=N/NC(=O)c1ccccc1NS(=O)(=O)c1cccs1 |  | inconclusive [inhibitor, partial curve]
CC(C)C(CC(=O)NCc1ccco1)c1ccco1 (configuration not stated) |  | active: 14.1 µM
CC(C)c1ccc(-c2cc(C(=O)NN3CCN(C)CC3)c3ccccc3n2)cc1 |  | inconclusive [inhibitor, partial curve]
O=c1oc2ccccc2c2c1C(c1ccc(Cl)cc1)Nc1ccc3ccccc3c1-2 (configuration not stated) |  | inconclusive [inhibitor, partial curve]
CC1(C)CC2CC(C)(CN2c2ncnc3ccc(Br)cc23)C1 (configuration not stated) |  | inconclusive [inhibitor, partial curve, poor fit]
Cc1ccc(C(=O)Nc2ccc3nccnc3c2)cc1 |  | inconclusive [inhibitor, partial curve]
Cc1cc(C(=O)Nc2sc(C)c(-c3ccc(F)cc3)c2C(N)=O)no1 |  | inconclusive [inhibitor, partial curve]
Nc1nc2nc(-c3ccccc3)cc(=O)n2[nH]1 |  | inconclusive [inhibitor, partial curve]
CCC(CO)Nc1ncnc2c1cnn2-c1ccc(OC)cc1 (configuration not stated) |  | inconclusive [inhibitor, partial curve]
Cc1ccccc1OCC(=O)N/N=C/c1ccc(Sc2nc3ccccc3s2)o1 | inactive: -17.6% | 
Cn1c(COc2ccccc2)nnc1SCC(=O)c1cccc([N+](=O)[O-])c1 |  | inconclusive [inhibitor, partial curve]
CCOC(=O)N1CCN(C(=O)CCCn2c(=S)[nH]c3ccc(Br)cc3c2=O)CC1 | inactive: -12.4% | 
COc1cc(C(=O)Nc2oc(-c3ccccc3)c(-c3ccccc3)c2C#N)cc(OC)c1OC |  | inconclusive [inhibitor, single point]
